Here are results for four molecules from paper PMC3709894.

No constants are given. Whether binding was seen depends on the method and setting. In cells and extracts the contact can be indirect. Some binding calls cover weakened binding; strength is not graded here. For some of these results: Sequences can lack the tags named with a protein.

Test [1] deals with T1, N-terminal fragment (1–172 aa) of Rad21 (Rad21 NT), expressed in 293 T cells (human) (UniProt O60216).
T1 sequence: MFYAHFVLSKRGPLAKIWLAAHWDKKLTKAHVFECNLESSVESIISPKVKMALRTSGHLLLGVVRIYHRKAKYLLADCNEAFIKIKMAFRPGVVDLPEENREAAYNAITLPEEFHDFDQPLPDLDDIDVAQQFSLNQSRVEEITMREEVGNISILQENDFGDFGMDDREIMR
Nature of the test: co-IP; 293 T cells transfected with differently tagged (Flag, HA) Rad21 NT, MP or CT fragments; IP from cell lysates 40 h after transfection; blots of the other copy and of endogenous proteins.

Test [2] addresses T2, middle part (173–450 aa) of Rad21 (Rad21 MP), expressed in 293 T cells (human) (UniProt O60216).
T2 sequence: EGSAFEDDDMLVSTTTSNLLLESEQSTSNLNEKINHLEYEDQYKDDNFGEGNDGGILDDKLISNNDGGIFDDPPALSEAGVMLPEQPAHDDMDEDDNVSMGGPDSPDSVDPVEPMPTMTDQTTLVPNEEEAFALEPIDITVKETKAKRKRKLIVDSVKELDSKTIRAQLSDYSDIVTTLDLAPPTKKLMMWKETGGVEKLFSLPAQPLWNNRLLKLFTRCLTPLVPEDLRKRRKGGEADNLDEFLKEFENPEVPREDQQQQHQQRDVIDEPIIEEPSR
The test is described as above.

Test [3] addresses T3, Flag-Rad21 WT (full length) in pFlag CMV2 (human) (UniProt O60216).
T3 sequence: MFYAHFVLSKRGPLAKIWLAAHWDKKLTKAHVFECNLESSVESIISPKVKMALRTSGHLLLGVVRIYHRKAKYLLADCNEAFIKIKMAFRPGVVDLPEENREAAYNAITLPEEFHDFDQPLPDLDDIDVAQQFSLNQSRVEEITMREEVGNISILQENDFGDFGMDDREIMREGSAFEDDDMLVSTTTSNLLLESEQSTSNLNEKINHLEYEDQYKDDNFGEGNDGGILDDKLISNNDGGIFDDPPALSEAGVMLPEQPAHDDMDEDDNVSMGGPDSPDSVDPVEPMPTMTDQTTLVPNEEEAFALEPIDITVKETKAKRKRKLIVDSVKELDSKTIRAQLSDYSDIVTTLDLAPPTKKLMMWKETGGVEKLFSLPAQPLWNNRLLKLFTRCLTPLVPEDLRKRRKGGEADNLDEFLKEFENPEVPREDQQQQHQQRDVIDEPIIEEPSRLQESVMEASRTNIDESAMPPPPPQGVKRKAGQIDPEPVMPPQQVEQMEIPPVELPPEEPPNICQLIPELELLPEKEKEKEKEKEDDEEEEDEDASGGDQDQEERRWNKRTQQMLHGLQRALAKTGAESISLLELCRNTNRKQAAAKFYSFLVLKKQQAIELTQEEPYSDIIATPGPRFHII
Nature of the test: co-IP; 293 T cells transfected with pFlag CMV2 Rad21 constructs; IP of Flag-Rad21 (Flag mAb agarose beads) from whole cell lysate, blots of endogenous cohesin subunits and associated proteins.

B1: N-terminal fragment (1–172 aa) of Rad21 (Rad21 NT), expressed in 293 T cells (domain or fragment, UniProt O60216 1-172)
chain: MFYAHFVLSKRGPLAKIWLAAHWDKKLTKAHVFECNLESSVESIISPKVKMALRTSGHLLLGVVRIYHRKAKYLLADCNEAFIKIKMAFRPGVVDLPEENREAAYNAITLPEEFHDFDQPLPDLDDIDVAQQFSLNQSRVEEITMREEVGNISILQENDFGDFGMDDREIMR
For B1, the binding entry in test [1] is recorded as “binds”.

B2: middle part (173–450 aa) of Rad21 (Rad21 MP), expressed in 293 T cells (domain or fragment, UniProt O60216 173-450)
chain: EGSAFEDDDMLVSTTTSNLLLESEQSTSNLNEKINHLEYEDQYKDDNFGEGNDGGILDDKLISNNDGGIFDDPPALSEAGVMLPEQPAHDDMDEDDNVSMGGPDSPDSVDPVEPMPTMTDQTTLVPNEEEAFALEPIDITVKETKAKRKRKLIVDSVKELDSKTIRAQLSDYSDIVTTLDLAPPTKKLMMWKETGGVEKLFSLPAQPLWNNRLLKLFTRCLTPLVPEDLRKRRKGGEADNLDEFLKEFENPEVPREDQQQQHQQRDVIDEPIIEEPSR
For the molecule B2, the binding entry in test [2] was “binds”.

B3: endogenous Pds5B (protein, UniProt Q9NTI5 1-1447)
chain: MAHSKTRTNDGKITYPPGVKEISDKISKEEMVRRLKMVVKTFMDMDQDSEEEKELYLNLALHLASDFFLKHPDKDVRLLVACCLADIFRIYAPEAPYTSPDKLKDIFMFITRQLKGLEDTKSPQFNRYFYLLENIAWVKSYNICFELEDSNEIFTQLYRTLFSVINNGHNQKVHMHMVDLMSSIICEGDTVSQELLDTVLVNLVPAHKNLNKQAYDLAKALLKRTAQAIEPYITNFFNQVLMLGKTSISDLSEHVFDLILELYNIDSHLLLSVLPQLEFKLKSNDNEERLQVVKLLAKMFGAKDSELASQNKPLWQCYLGRFNDIHVPIRLECVKFASHCLMNHPDLAKDLTEYLKVRSHDPEEAIRHDVIVSIVTAAKKDILLVNDHLLNFVRERTLDKRWRVRKEAMMGLAQIYKKYALQSAAGKDAAKQIAWIKDKLLHIYYQNSIDDRLLVERIFAQYMVPHNLETTERMKCLYYLYATLDLNAVKALNEMWKCQNLLRHQVKDLLDLIKQPKTDASVKAIFSKVMVITRNLPDPGKAQDFMKKFTQVLEDDEKIRKQLEVLVSPTCSCKQAEGCVREITKKLGNPKQPTNPFLEMIKFLLERIAPVHIDTESISALIKQVNKSIDGTADDEDEGVPTDQAIRAGLELLKVLSFTHPISFHSAETFESLLACLKMDDEKVAEAALQIFKNTGSKIEEDFPHIRSALLPVLHHKSKKGPPRQAKYAIHCIHAIFSSKETQFAQIFEPLHKSLDPSNLEHLITPLVTIGHIALLAPDQFAAPLKSLVATFIVKDLLMNDRLPGKKTTKLWVPDEEVSPETMVKIQAIKMMVRWLLGMKNNHSKSGTSTLRLLTTILHSDGDLTEQGKISKPDMSRLRLAAGSAIVKLAQEPCYHEIITLEQYQLCALAINDECYQVRQVFAQKLHKGLSRLRLPLEYMAICALCAKDPVKERRAHARQCLVKNINVRREYLKQHAAVSEKLLSLLPEYVVPYTIHLLAHDPDYVKVQDIEQLKDVKECLWFVLEILMAKNENNSHAFIRKMVENIKQTKDAQGPDDAKMNEKLYTVCDVAMNIIMSKSTTYSLESPKDPVLPARFFTQPDKNFSNTKNYLPPEMKSFFTPGKPKTTNVLGAVNKPLSSAGKQSQTKSSRMETVSNASSSSNPSSPGRIKGRLDSSEMDHSENEDYTMSSPLPGKKSDKRDDSDLVRSELEKPRGRKKTPVTEQEEKLGMDDLTKLVQEQKPKGSQRSRKRGHTASESDEQQWPEEKRLKEDILENEDEQNSPPKKGKRGRPPKPLGGGTPKEEPTMKTSKKGSKKKSGPPAPEEEEEEERQSGNTEQKSKSKQHRVSRRAQQRAESPESSAIESTQSTPQKGRGRPSKTPSPSQPKKNVRVGRSKQAATKENDSSEEVDVFQGSSPVDDIPQEETEEEEVSTVNVRRRSAKRERR
With B3, the binding entry in test [3] is listed as “binds weakly”.

B4: endogenous Pds5A (protein, UniProt Q29RF7 1-1337)
chain: MDFTAQPKPATALCGVVSADGKIAYPPGVKEITDKITTDEMIKRLKMVVKTFMDMDQDSEDEKQQYLPLALHLASEFFLRNPNKDVRLLVACCLADIFRIYAPEAPYTSHDKLKDIFLFITRQLKGLEDTKSPQFNRYFYLLENLAWVKSYNICFELEDCNEIFIQLFRTLFSVINNSHNKKVQMHMLDLMSSIIMEGDGVTQELLDSILINLIPAHKNLNKQSFDLAKVLLKRTVQTIEACIANFFNQVLVLGRSSVSDLSEHVFDLIQELFAIDPHLLLSVMPQLEFKLKSNDGEERLAVVRLLAKLFGSKDSDLATQNRPLWQCFLGRFNDIHVPVRLESVKFASHCLMNHPDLAKDLTEYLKVRSHDPEEAIRHDVIVTIITAAKRDLALVNDQLLGFVRERTLDKRWRVRKEAMMGLAQLYKKYCLHGEAGKEAAEKVSWIKDKLLHIYYQNSIDDKLLVEKIFAQYLVPHNLETEERMKCLYYLYASLDPNAVKALNEMWKCQNMLRSHVRELLDLHKQPTSEANCSAMFGKLMTIAKNLPDPGKAQDFVKKFNQVLGDDEKLRSQLELLISPTCSCKQADICVREIARKLANPKQPTNPFLEMVKFLLERIAPVHIDSEAISALVKLMNKSIEGTADDEEEGVSPDTAIRSGLELLKVLSFTHPTSFHSAETYESLLQCLRMEDDKVAEAAIQIFRNTGHKIETDLPQIRSTLIPILHQKAKRGTPHQAKQAVHCIHAIFTNKEVQLAQIFEPLSRSLNADVPEQLITPLVSLGHISMLAPDQFASPMKSVVANFIVKDLLMNDRSTGEKNGKLWSPDEEVSPEVLAKVQAIKLLVRWLLGMKNNQSKSANSTLRLLSAMLVSEGDLTEQKRISKSDMSRLRLAAGSAIMKLAQEPCYHEIITPEQFQLCALVINDECYQVRQIFAQKLHKALVKLLLPLEYMAIFALCAKDPVKERRAHARQCLLKNISIRREYIKQNPMATEKLLSLLPEYVVPYMIHLLAHDPDFTRSQDVDQLRDIKECLWFMLEVLMTKNENNSHAFMKKMAENIKLTRDAQSPDESKTNEKLYTVCDVALCVINSKSALCNADSPKDPVLPMKFFTQPEKDFCNDKSYISEETRVLLLTGKPKPAGVLGAVNKPLSATGRKPYVRSTGTETGSNINVNSELNPSTGNRSREQSSEAAETGVSENEENPVRIISVTPVKNIDPVKNKEINSDQATQGNISSDRGKKRTVTAAGAENIQQKTDEKVDESGPPAPSKPRRGRRPKSESQGNATKNDDLNKPINKGRKRAAVGQESPGGLEAGNAKAPKLQDLAKKAAPAERQIDLQR
Turning to B4, the binding result in test [3] is “binds weakly”.
